Sequences with one replicate were seen in a single cluster, so their values are uncertain.
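Further: ATP exposure 15 min at 22 °C before imaging.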

The series deals with ATP. Kind of series: switch fluorescence ratio, 500 uM ATP over buffer (Cy3 cluster intensity, sum of 5 cycles each) (fold (ratio)); higher = stronger signal-on switching upon ATP binding; sequences stand for … in TCGTCGGCAGCGTCAGATGTGTATAAGAGACAGTTTTTTTTTTTTTTTTTTTTTTTTT…TC. As to conditions: aptamer strand: ATP DNA aptamer (quencher-CACCTGGGGGAGTATTGCGGAGGAAGG + anchor), 100 nM annealed; ATP concentration: 500 uM; one replicate. An outline of the steps: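 Clusters carrying Cy3-labelled switching strands on a modified Illumina MiSeq flow-cell were annealed to 100 nM quencher-labelled ATP aptamer and imaged in selection buffer. They were imaged again after 15 min with 500 uM ATP at 22 °C, over five buffer/ATP cycles with NaOH stripping and re-annealing in between. For each cluster, the fluorescence ratio is the summed Cy3 intensity of the target cycles divided by that of the buffer cycles, averaged per switch-domain sequence. Clusters outside 100-1000 RFU were left out.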
With GCGGCCAGAG, the switch fluorescence ratio was determined as 1.01.

For TAAAAGCCCC, the switch fluorescence ratio came out at 1.11.

Take CATGCTAATT: the switch fluorescence ratio turned out to be 0.966.

Take TGTATCTTGG: the switch fluorescence ratio is 0.988.

In the case of AAGGGCCATG, the switch fluorescence ratio worked out at 1.01.

With CGTACCCCGT, the switch fluorescence ratio worked out at 1.

Take GGTGTGGGCC: the switch fluorescence ratio is 0.975.

As for CAAATGTCTA, the switch fluorescence ratio came out at 0.982.

As for GTATCATGAG, the switch fluorescence ratio is 0.994.

Consider ATACCGCTTA, for which the switch fluorescence ratio amounted to 1.28.

AGCGGTATTT: the switch fluorescence ratio came out at 0.972.

In the case of CCATTGTCCG, the switch fluorescence ratio came out at 0.966.

Consider CCTTATAGGG, for which the switch fluorescence ratio turned out to be 1.15.

Take GTAATTACAG: the switch fluorescence ratio is 1.01.

TACTGGGTTG: the switch fluorescence ratio was determined as 0.994.

As to GAATTGGCGG, the switch fluorescence ratio turned out to be 1.01.

As for AAAAACACTC, the switch fluorescence ratio amounted to 1.12.

As for GACCCATGAT, the switch fluorescence ratio came out at 0.976.

On to GAGACATGAT, for which the switch fluorescence ratio stood at 1.05.

As for ATGAAGCACC, the switch fluorescence ratio turned out to be 1.32.

On to TTCTAAGAGG, for which the switch fluorescence ratio turned out to be 1.02.

Consider AAAAGGATTC, for which the switch fluorescence ratio was determined as 1.05.

Regarding GGTAGGGCAC, the switch fluorescence ratio amounted to 1.05.

As to CGCATTAGGG, the switch fluorescence ratio was 1.23.

TTGTACGCAC: the switch fluorescence ratio was 1.79.

For the sequence CTGGTATAT, the switch fluorescence ratio amounted to 1.01.

Consider TAGTCACGGG, for which the switch fluorescence ratio was found to be 1.01.

With GTTGCTACAG, the switch fluorescence ratio is 1.01.

In the case of GTTTGCCGTG, the switch fluorescence ratio is 1.04.

GTGTCATGGG: the switch fluorescence ratio was 0.984.

Consider AGCACGGATT, for which the switch fluorescence ratio was 1.02.

Consider CTTAGCCCGG, for which the switch fluorescence ratio came out at 1.01.

Turning to AGGAATGTAG, the switch fluorescence ratio is 0.974.

Consider AAGATTATAA, for which the switch fluorescence ratio amounted to 1.01.

On to GGACTCAGAT, for which the switch fluorescence ratio is 0.998.

CACTCTTCGA: the switch fluorescence ratio worked out at 0.989.

Consider TGTAATCAGT, for which the switch fluorescence ratio was determined as 0.998.

CGAACAATTT: the switch fluorescence ratio was 1.03.

Consider CAATGTGTTC, for which the switch fluorescence ratio was 1.03.

As for CGGAGGAGAA, the switch fluorescence ratio came out at 1.04.

In the case of AGGCACTAGC, the switch fluorescence ratio was 0.991.

Take AGGACGGA: the switch fluorescence ratio turned out to be 0.986.

Regarding GACTTAGTTT, the switch fluorescence ratio worked out at 1.02.

As for GATCGAAGTA, the switch fluorescence ratio was 0.984.

Turning to CGCGAGTTCA, the switch fluorescence ratio turned out to be 0.992.

As for CAAGCGCAGG, the switch fluorescence ratio worked out at 1.06.

As to AGATATCTAC, the switch fluorescence ratio came to 0.996.

In the case of GCGGCCAAT, the switch fluorescence ratio stood at 1.03.

For the sequence GCCTAGGCCT, the switch fluorescence ratio stood at 0.979.

Consider CATTATGATT, for which the switch fluorescence ratio worked out at 0.998.

Consider CGAGGATTTA, for which the switch fluorescence ratio amounted to 1.03.

Regarding GTCGGGCCTC, the switch fluorescence ratio amounted to 0.994.

As to TGTCAGGGAT, the switch fluorescence ratio stood at 1.01.

As for GAAGTGGTGC, the switch fluorescence ratio was 1.12.

Turning to GGGCATTTGA, the switch fluorescence ratio was 1.04.

Take TGAGCTCTTT: the switch fluorescence ratio came to 1.04.

For AGTCGCAGTA, the switch fluorescence ratio was 1.04.

CAGAGTGATC: the switch fluorescence ratio turned out to be 1.01.

On to TATAATGAT, for which the switch fluorescence ratio was found to be 0.995.

Turning to CGCGCGCTG, the switch fluorescence ratio was 1.

As to GCTGACATAG, the switch fluorescence ratio was 1.

For the sequence TGGCATTAGT, the switch fluorescence ratio is 1.04.

GAATACTCGT: the switch fluorescence ratio is 1.02.

For the sequence AGATTTGATA, the switch fluorescence ratio amounted to 0.987.

ATATTGAATG: the switch fluorescence ratio came to 0.995.

For the sequence CAAAGACCTA, the switch fluorescence ratio was found to be 1.02.

As for GGAACGGGCG, the switch fluorescence ratio was determined as 1.03.

For the sequence AAAATTTGAA, the switch fluorescence ratio amounted to 1.03.

As to TCTCCAATA, the switch fluorescence ratio is 1.64.

As to GTCGAGAGCG, the switch fluorescence ratio was found to be 0.983.

For the sequence GCATGCAGTC, the switch fluorescence ratio amounted to 1.01.

For the sequence GGGATAGCAG, the switch fluorescence ratio was found to be 0.986.

Consider CGCCGGTTGA, for which the switch fluorescence ratio turned out to be 1.05.

Regarding AATTGCAATT, the switch fluorescence ratio was 0.965.

For the sequence TAAGATGGTT, the switch fluorescence ratio was 0.985.

Take AATACTCAGA: the switch fluorescence ratio is 1.02.

AGTAATTTCG: the switch fluorescence ratio is 0.961.

As for CCCGCCAACG, the switch fluorescence ratio amounted to 1.73.

For TGCTGGCGTC, the switch fluorescence ratio is 0.98.

For the sequence CTGTAATGTA, the switch fluorescence ratio worked out at 1.09.

In the case of TTTGAAAGA, the switch fluorescence ratio was found to be 1.01.

In the case of ACTTATGGGC, the switch fluorescence ratio was 1.02.

As to GGCTATTGGC, the switch fluorescence ratio is 1.01.

For TTACGCTAGA, the switch fluorescence ratio came out at 1.07.

For TTCGCTTCCA, the switch fluorescence ratio is 1.01.

In the case of TGGATTTTAC, the switch fluorescence ratio came out at 0.989.

With ACTTTAACAT, the switch fluorescence ratio is 1.12.

In the case of ATAGGTTAGC, the switch fluorescence ratio came to 0.987.

Take CCAATTGTGA: the switch fluorescence ratio was found to be 0.98.

In the case of AGTAGACTT, the switch fluorescence ratio came to 1.

As to GAATATACAT, the switch fluorescence ratio worked out at 1.01.

For the sequence ACACCTTTTA, the switch fluorescence ratio worked out at 1.05.

As for AGCTTCCGTA, the switch fluorescence ratio came to 1.39.

In the case of TTCGGACGG, the switch fluorescence ratio worked out at 1.

As to ACATGTAAAG, the switch fluorescence ratio was determined as 1.02.

For TATTAGAGTC, the switch fluorescence ratio was 0.975.

As for AGGTTCAGTA, the switch fluorescence ratio stood at 1.03.

ACTTTTTGCG: the switch fluorescence ratio is 0.987.

Take TTTCAGTCGA: the switch fluorescence ratio amounted to 0.972.

As to GATCTTAGCC, the switch fluorescence ratio amounted to 0.958.

ACAAGTCGGC: the switch fluorescence ratio was determined as 1.02.

For AATATAATGG, the switch fluorescence ratio is 0.988.

On to CCTGAACGTT, for which the switch fluorescence ratio was 0.992.

Turning to GTAATGCCGG, the switch fluorescence ratio was 1.06.

On to TCGAGCAGAG, for which the switch fluorescence ratio is 1.29.

As for CTCTGAGTG, the switch fluorescence ratio was 1.02.

Consider TTTCCACGAG, for which the switch fluorescence ratio came to 1.03.

On to ACTACGAGAG, for which the switch fluorescence ratio came out at 1.02.

Take AAGAACGTTA: the switch fluorescence ratio turned out to be 1.11.

As for CGGTGAAGGA, the switch fluorescence ratio was determined as 0.974.

In the case of ATCAAATTTT, the switch fluorescence ratio was 0.977.

As to TATACTGTCG, the switch fluorescence ratio came out at 1.01.

CATGATTTTT: the switch fluorescence ratio is 1.07.

Turning to ACTCCGATGG, the switch fluorescence ratio stood at 2.54.

GTTCTAGATA: the switch fluorescence ratio stood at 0.983.

For the sequence AACGGCGGTC, the switch fluorescence ratio was 1.01.

With AAACGGGATG, the switch fluorescence ratio was determined as 1.

Consider GACAACCGGC, for which the switch fluorescence ratio stood at 1.11.

On to GGCGGGACTT, for which the switch fluorescence ratio amounted to 0.998.

For TATGTCTCAC, the switch fluorescence ratio came out at 1.03.

Source of the values: the supplement of paper PMC10126150.
